Results taken from PubChem BioAssay AID504333 (National Center for Advancing Translational Sciences (NCATS), 2011).
The whole screen tested about 360,000 compounds, of which about 16,000 (4.4%) were called active. The shares of active, inactive and inconclusive entries below differ from those in the screen. The call rests on the fitted dose curve; in most records, active means well fitted inhibition curve with a large enough effect; inconclusive means small, poorly fitted or top-dose-only effect; inactive means no such curve, though single readings can be large or run the other way. Potencies beside an inconclusive call are fits to weak or partial responses and may not hold up.

target: Bromodomain adjacent to zinc finger domain protein 2B (Homo sapiens) (UniProt Q9UIF8); experiment: qHTS Assay for Inhibitors of BAZ2B; settings: AlphaScreen BAZ2B-H3K14Ac peptide displacement; series mostly up to 114 µM; further: nearly all actives have a fitted effect of over 60% in size
Chain of UniProt Q9UIF8 (Q9UIF8 whole entry, looked up, the tested form may be a part): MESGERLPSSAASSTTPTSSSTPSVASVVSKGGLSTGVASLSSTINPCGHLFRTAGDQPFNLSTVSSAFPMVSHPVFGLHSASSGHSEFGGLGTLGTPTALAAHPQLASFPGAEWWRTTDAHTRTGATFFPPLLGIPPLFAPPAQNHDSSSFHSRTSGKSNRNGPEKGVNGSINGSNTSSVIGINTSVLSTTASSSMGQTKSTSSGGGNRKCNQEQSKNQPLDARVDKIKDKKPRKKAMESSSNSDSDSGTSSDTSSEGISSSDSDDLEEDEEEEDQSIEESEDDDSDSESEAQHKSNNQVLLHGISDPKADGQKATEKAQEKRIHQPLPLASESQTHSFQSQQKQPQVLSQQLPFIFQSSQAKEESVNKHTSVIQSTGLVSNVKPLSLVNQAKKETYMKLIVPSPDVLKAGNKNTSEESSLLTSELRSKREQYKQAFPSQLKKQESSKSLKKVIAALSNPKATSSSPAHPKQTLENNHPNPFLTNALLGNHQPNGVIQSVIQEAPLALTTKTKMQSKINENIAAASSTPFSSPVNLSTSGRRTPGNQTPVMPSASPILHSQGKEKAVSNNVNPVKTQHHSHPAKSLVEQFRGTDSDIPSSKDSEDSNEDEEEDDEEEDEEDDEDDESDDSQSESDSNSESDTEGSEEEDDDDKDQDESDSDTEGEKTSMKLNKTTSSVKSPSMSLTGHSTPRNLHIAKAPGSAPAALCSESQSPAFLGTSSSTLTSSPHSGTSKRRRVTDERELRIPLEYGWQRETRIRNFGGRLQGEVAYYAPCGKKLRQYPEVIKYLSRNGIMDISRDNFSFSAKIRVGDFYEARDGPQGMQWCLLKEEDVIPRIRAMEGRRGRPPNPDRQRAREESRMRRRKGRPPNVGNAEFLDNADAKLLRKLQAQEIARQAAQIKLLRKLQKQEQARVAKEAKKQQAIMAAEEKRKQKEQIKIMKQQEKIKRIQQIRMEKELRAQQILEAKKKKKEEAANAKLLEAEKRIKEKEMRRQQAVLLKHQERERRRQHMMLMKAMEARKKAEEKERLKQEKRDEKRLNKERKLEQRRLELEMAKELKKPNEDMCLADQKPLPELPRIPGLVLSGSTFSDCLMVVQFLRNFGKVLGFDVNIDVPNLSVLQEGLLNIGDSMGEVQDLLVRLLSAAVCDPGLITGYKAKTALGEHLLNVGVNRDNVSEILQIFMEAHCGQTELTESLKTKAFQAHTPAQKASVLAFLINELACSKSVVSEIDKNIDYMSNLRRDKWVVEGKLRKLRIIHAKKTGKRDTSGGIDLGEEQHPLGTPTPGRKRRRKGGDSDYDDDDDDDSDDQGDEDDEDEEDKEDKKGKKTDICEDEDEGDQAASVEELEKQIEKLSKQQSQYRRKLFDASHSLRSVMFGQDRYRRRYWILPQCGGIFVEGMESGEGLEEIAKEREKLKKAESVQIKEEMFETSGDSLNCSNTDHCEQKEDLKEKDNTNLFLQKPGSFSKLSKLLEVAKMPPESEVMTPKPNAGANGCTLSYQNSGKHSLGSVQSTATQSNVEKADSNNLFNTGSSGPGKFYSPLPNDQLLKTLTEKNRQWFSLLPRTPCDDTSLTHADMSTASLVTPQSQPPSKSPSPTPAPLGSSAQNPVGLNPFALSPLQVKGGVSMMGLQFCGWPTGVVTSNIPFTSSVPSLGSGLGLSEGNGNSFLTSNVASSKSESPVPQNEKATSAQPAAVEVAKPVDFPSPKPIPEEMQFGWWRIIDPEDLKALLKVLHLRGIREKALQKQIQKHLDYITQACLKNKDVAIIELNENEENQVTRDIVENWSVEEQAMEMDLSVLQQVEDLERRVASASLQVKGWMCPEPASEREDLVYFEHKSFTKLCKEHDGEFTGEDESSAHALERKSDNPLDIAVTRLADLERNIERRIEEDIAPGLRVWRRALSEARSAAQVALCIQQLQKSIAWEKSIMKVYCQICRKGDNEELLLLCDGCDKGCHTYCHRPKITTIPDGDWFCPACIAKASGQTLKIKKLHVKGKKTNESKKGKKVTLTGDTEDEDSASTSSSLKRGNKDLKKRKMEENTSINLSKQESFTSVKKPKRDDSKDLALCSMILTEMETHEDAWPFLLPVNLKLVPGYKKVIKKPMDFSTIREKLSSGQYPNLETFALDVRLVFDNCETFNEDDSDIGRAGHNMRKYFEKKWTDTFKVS
Summary of the method: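 Complex of BAZ2B and biotin-H3K14Ac (50 nM apiece) forms over 30 min at RT, then faces library compounds up to 110 uM for another 30 min; AlphaScreen beads added, 20 min dark incubation, luminescence read.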
Potency means the concentration at half of the fitted maximal effect; tags describe the fitted curve by direction and shape.

| SMILES | Potency |
| --- | --- |
| CN(C(=O)CSc1nnc(CNC(=O)c2ccccc2)o1)c1ccccc1 | inactive |
| Cc1ccc(CNC(=O)COC(=O)CCC(=O)c2cccs2)cc1 | inactive |
| NC(=O)NC(=O)CSc1nc(-c2ccccc2)c(-c2ccccc2)n1CC1CCCO1 (stereo not given) | inconclusive: 39.8 µM [inhibitor, partial curve] |
| O=C(N/N=C\c1ccc(COc2ccc([N+](=O)[O-])cc2)o1)c1ccc(Cl)cc1 | inactive |
| Cc1noc(C)c1COc1ccccc1C(=O)NNC(=O)c1ccccc1F | inactive |
| CNC(=S)N1N=C(c2cccs2)CC1c1ccc(OC)cc1 (stereo not given) | inconclusive: 89.1 µM [inhibitor, single point] |
| Cc1nn(-c2ccc(F)cc2)c(-n2cccc2)c1C(=O)N1CCN(c2ccc(F)cc2)CC1 | inconclusive: 50.1 µM [inhibitor, partial curve] |
| COc1ccc(N2CCN(C(=O)COC(=O)CCOc3ccccc3C)CC2)cc1 | inconclusive: 89.1 µM [inhibitor, single point] |
| COc1ccc(NC(C)=O)cc1NC(=O)CN1CCN(C2c3ccccc3-c3ccccc32)CC1 | inconclusive: 44.7 µM [inhibitor, partial curve] |
| COc1ccc(-c2csc(NC(=O)CN3C(=O)C4CCCCC4C3=O)n2)cc1OC (stereo not given) | inconclusive: 50.1 µM [inhibitor, partial curve] |
| O=[N+]([O-])c1cc([N+](=O)[O-])c(Oc2ccc(F)cc2F)cc1NN1CCCCC1 | inconclusive: 25.1 µM [inhibitor, full curve] |
| Cc1c(NC(=O)c2cc([N+](=O)[O-])ccc2N2CCOCC2)cccc1-c1nc2ccccc2o1 | inactive |
| O=C(NC(c1ccccc1)c1ccccc1)c1ccc(=O)[nH]n1 | inconclusive: 89.1 µM [inhibitor, single point] |
| Cc1cc(C)n(CCc2nc(-c3ccco3)cs2)n1 | active: 50.1 µM |
| Cc1c(C(=O)O)c(C(=O)O)c2n1CCS2 | inconclusive: 56.2 µM [inhibitor, partial curve] |
| Cc1ccc(NC(=O)CN2CCCC2)cc1Br | inconclusive: 89.1 µM [inhibitor, single point] |
| COC(=O)c1ccc(CSc2nc3c(c(=O)n2-c2ccc(Br)cc2)SCC3)o1 | inconclusive: 44.7 µM [inhibitor, partial curve] |
| COc1cc(C)c(CN2CCSCC2)cc1C | inconclusive: 89.1 µM [inhibitor, single point] |
| CN(C[C@H](c1ccccc1)N(C[C@H](Cc1ccccc1)N(CCc1ccccc1)N=O)N=O)N=O | inconclusive: 79.4 µM [inhibitor, single point] |
| O=C(NCCO)c1cccc(Nc2nc(-c3ccccc3)c3cc(Cl)ccc3n2)c1 | inconclusive: 100 µM [inhibitor, single point] |
| O=C1SC(SC(=Nc2ccccc2)Nc2ccccc2)C(=O)N1c1ccccc1 (stereo not given) | inconclusive: 39.8 µM [inhibitor, partial curve] |
| CCn1ccnc1CN1CCCC(C(=O)c2ccc3cc(OC)ccc3c2)C1 (stereo not given) | inconclusive: 15.8 µM [inhibitor, partial curve] |
| Cc1[nH]c2ccc(-c3nnc(SCC(=O)NCc4ccco4)n3Cc3ccccc3)cc2c1C | active: 56.2 µM |
| O=[N+]([O-])c1ccc(N/N=C2\CC3CC=CC23)cc1 (stereo not given) | inconclusive: 56.2 µM [inhibitor, partial curve] |

| SMILES | Potency |
| --- | --- |
| c1ccc(-c2nc3ccccc3[nH]2)nc1 | inactive |
| CCOc1cc(C2C(C(=O)OC(C)C)=C(C)NC3=C2C(=O)CCC3)cc([N+](=O)[O-])c1O (stereo not given) | inconclusive: 56.2 µM [inhibitor, partial curve] |
| Cc1nc(SCC(=O)Nc2nnc(C(C)C)s2)n[nH]1 | inactive |
| COc1ccc(C(=O)Nc2cc(C)c(NC(=O)c3ccccc3OC)cn2)cc1 | inconclusive: 70.8 µM [inhibitor, single point] |
| OCc1cn(-c2ccccc2)nc1-c1ccco1 | inconclusive: 12.6 µM [inhibitor, single point] |
| COc1cc(OC)c(NC(=O)c2c(C)oc3ncn(C)c(=O)c23)cc1Cl | inactive |
| COc1cc(C2C3=C(CC(C)(C)CC3=O)OC(N)=C2[N+](=O)[O-])ccc1O (stereo not given) | inactive |
| CCOc1cccc(OCCCCN2CCCCC2)c1 | inconclusive: 89.1 µM [inhibitor, single point] |
| Cc1ccn2c(Nc3ccc(C(C)C)cc3)c(-c3cccs3)nc2c1 | inactive |
| COc1ccc(C(=O)N/N=C(\C)CC(=O)Nc2ccc(N(C)C)cc2)c(OC)c1 | active: 39.8 µM |
| CC12COC3(P(=O)(c4ccccc4)c4ccccc4)CC1CCC23CP(=O)(c1ccccc1)c1ccccc1 (stereo not given) | active: 70.8 µM |
| CC(C)(C)NC(=O)NC(=O)COC(=O)Cc1coc2ccc3ccccc3c12 | inconclusive: 39.8 µM [inhibitor, partial curve] |
| CCOC(=O)c1c(NC(=O)c2cc(-c3cccc(O)c3)on2)sc(C(C)=O)c1C | inconclusive: 79.4 µM [inhibitor, single point] |
| Cc1cc(S(=O)(=O)NCC(c2ccc3c(c2)OCO3)N2CCOCC2)ccc1F (stereo not given) | inactive |
| CC(=O)c1c(N2CCN(Cc3ccccc3)CC2)nc(=S)n(Cc2ccccc2)c1C | inconclusive: 89.1 µM [inhibitor, single point] |
| COc1cc(COC(=O)c2cnc(C)cn2)c(OC)cc1Br | inconclusive: 89.1 µM [inhibitor, single point] |
| O=C(Nc1ccc2oc(-c3ccc(O)c(Br)c3)nc2c1)c1cc2ccccc2o1 | inconclusive: 89.1 µM [inhibitor, single point] |
| COc1ccc(OC)c(C(c2nnnn2C2CCCC2)N2CCc3ccccc3C2)c1 (stereo not given) | inconclusive: 44.7 µM [inhibitor, partial curve] |
| CCOCCCNCc1ccc(Cl)cc1 | active: 70.8 µM |
| CCOC(=O)c1ccc(N2C(=O)C(O)=C(C(C)=O)C2c2ccc(O)c(OC)c2)cc1 (stereo not given) | inconclusive: 89.1 µM [inhibitor, single point] |
| Cc1ccc(NC(=O)C2CC2c2ccccc2)c([N+](=O)[O-])c1 (stereo not given) | inconclusive: 39.8 µM [inhibitor, partial curve] |
| COc1ccc(C2=NN(C3=NN=C(N)Cc4ncnn43)C(O)(C(F)(F)F)C2)cc1 (stereo not given) | inconclusive: 89.1 µM [inhibitor, single point] |
| COCCCn1c(=O)c2ccccc2n(Cc2ccccc2)c1=O | inconclusive: 89.1 µM [inhibitor, single point] |
| CC(=O)Nc1ccc(N=C(C2=C(O)c3ccccc3C2=O)c2ccccc2)cc1 | active: 39.8 µM |

| SMILES | Potency |
| --- | --- |
| CC(=O)N1c2nc(C(C)C)nn2C2(CCCCC2)[C@@H]2CCCC[C@@H]21 | inactive |
| CC(Sc1nc2ccccc2n1C)C(=O)Nc1ccc(N2CCOCC2)cc1 (stereo not given) | inconclusive: 39.8 µM [inhibitor, partial curve] |
| O=C(CSc1ncnc2[nH]ncc12)Nc1nc(-c2ccc(F)c(F)c2)cs1 | inactive |
| CCc1c(C(=O)NC2CCCc3ccccc32)[nH]c(C)c1C(C)=O (stereo not given) | inconclusive: 25.1 µM [inhibitor, partial curve] |
| Cc1ccc(-c2nc3cnccn3c2Nc2ccc3c(c2)OCO3)o1 | active: 50.1 µM |
| CCCC(=O)Nc1ccc2c(c1)nc(CCN1CCN(c3ccccn3)CC1)n2C | inactive |
| COc1ccc2oc(=O)c(C(=O)C[n+]3cccc(C)c3)cc2c1 | inconclusive: 70.8 µM [inhibitor, single point] |
| Fc1ccccc1CN1CCCCCCC1 | active: 50.1 µM |
| COc1ccc(N2CCN(c3c(S(=O)(=O)c4ccccc4)cnc4ccc(OC)cc34)CC2)cc1 | inconclusive: 10 µM [inhibitor, full curve] |
| CN(C)c1ccc(/C=N/NC(=O)c2ccc(Cn3cc(Br)cn3)o2)cc1 | inconclusive: 79.4 µM [inhibitor, single point] |
| O=[N+]([O-])c1ccc(/C=N/NC(=S)Nc2ccccc2C(F)(F)F)o1 | inconclusive: 79.4 µM [inhibitor, single point] |
| COc1ccccc1OCC(=O)Nc1ccc2c(c1)n(C)c(=O)n2C | active: 56.2 µM |
| CCOC(=O)/C=C1\SCC(=O)N1CC(=O)Nc1ccc(OC)c(OC)c1 | inactive |
| CN(Cc1ccco1)C(=O)c1ccc2c(c1)N(Cc1ccccc1F)C(=O)c1ccccc1S2 | inactive |
| CCCc1nc2ccccc2c(C(=O)OCC(=O)Nc2c(C)n(C)n(-c3ccccc3)c2=O)c1CC | inactive |
| COC(=O)C(NNc1ccccc1)(NC(=O)c1ccccc1F)C(F)(F)F (stereo not given) | inconclusive: 89.1 µM [inhibitor, single point] |
| CCCN(C(=O)Cc1nc(N)n[nH]1)C1(C(=O)Nc2c(C)cccc2C)CCCCC1 | active: 79.4 µM |
| Nc1c(C(=O)Nc2nc3ccccc3s2)sc2nc(-c3cccs3)ccc12 | inconclusive: 79.4 µM [inhibitor, single point] |
| CCCCCn1c(N)c(-c2nc3ccccc3s2)c2c([N+](=O)[O-])nn(CC)c(=O)c21 | inconclusive: 79.4 µM [inhibitor, single point] |
| Cc1c(NC(=S)NC(=O)c2sc3ccccc3c2Cl)cccc1C(=O)O | active: 50.1 µM |
| C=CCn1c(Cc2nc3ccc(Cl)cc3[nH]2)n[nH]c1=S | inconclusive: 89.1 µM [inhibitor, single point] |
| COc1ccccc1N1CCN(/N=C/c2cccc(Cl)c2)CC1 | inconclusive: 39.8 µM [inhibitor, full curve] |
